Test results: article PMC12040169 (PLOS Biology, 2025)
The list shows a part of the results.

tested on: T1, C. trachomatis L2/434/Bu expressing GFP (CTL2-GFP); design: species or system HeLa; C. trachomatis total inclusion area by high-content imaging, normalised to DMSO; settings: total inclusion area; 28.5 h, 10 µM; inhibitor
T1 construct: L2/434/Bu GFP intracellular growth in HeLa cells
How it was run: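 High-content images of fixed, Hoechst-stained infected cultures supply inclusion area and count (growth) plus nuclei number (viability), complementing bulk GFP/resorufin fluorescence. MIC determination is unchanged from the primary assay.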

Structure (SMILES)	% of control remaining
O=C(NCCN1CCCC1=O)Nc1ccccc1 [CBK263517]	83.814
O=C(O)c1cccnc1SC1CC(=O)N(Cc2ccccc2)C1=O (stereo not drawn) [CBK263375]	77.4998
COc1ccc(C[C@@]23CC[C@H](NC(=O)NCCc4ccccc4)C[C@@H]2N(C)CC3)cc1 [CBK024127]	66.58
COc1cccc(C(=O)N2CCN(S(=O)(=O)c3ccc([N+](=O)[O-])cc3)CC2)c1 [CBK157533]	69.4259
CS(=O)(=O)NCC1CCCCN1Cc1ccc(-n2cccn2)cc1 (stereo not drawn) [CBK305587]	30.3381
Cc1csc2c(C3CCCN(C(=O)c4cccnc4)C3)nc(C)n12 (stereo not drawn) [CBK283329]	112.376
CCc1nc2ccc(C(=O)N3CCN(C(C)=O)CC3)cn2c1N(C)Cc1ccc(Cl)cc1 [CBK146718]	82.9518
c1ccc(CSc2nnc3ccc(-c4ccncc4)nn23)cc1 [CBK287681]	82.5285
OCCc1ccc(Nc2cc(-c3ccc4c(c3)OCO4)ncn2)cc1 [CBK090767]	87.8276
O=C(O)c1ccc(NC(=O)c2cccc(-n3cnnc3)c2)cc1 [CBK270134]	111.861
CCNC(=S)N[C@H]1CC[C@@]2(Cc3ccccc3Cl)CCN(C)[C@H]2C1 [CBK003708]	84.4132
C=C(C)Cn1c(Cc2ccccc2)nnc1SCC(C)C [CBK200082]	5.595
COc1cc(NS(=O)(=O)c2cc(C(=O)O)c(Cl)cc2Cl)cc(OC)c1 [CBK113162]	73.2792
Clc1ccc2c(c1)NC(c1ccco1)N1CCN=C21 (stereo not drawn) [CBK284479]	62.2363
CSCCC(=O)Nc1cccc2[nH]ccc12 [CBK159655]	97.3153
CCc1cn(C[C@H](NC(=O)C2CCC2)C(=O)O)c(=O)[nH]c1=O [CBK289663]	104.405
O=C(c1nc2ccccc2[nH]1)N1CCc2ccccc2C1 [CBK200341]	90.8187
COCC(=O)N(C)C(CO)c1cc(OC)ccc1Br (stereo not drawn) [CBK304780]	73.098
CCNC(=O)N1CC2(CCN(CCSC)CC2)c2ccccc21 [CBK126709]	86.3537
O=C(CN1CCC(NC(=O)c2cccs2)CC1)Nc1cc(F)ccc1F [CBK305997]	50.9678
c1ccc(C(CCN2CCc3ccccc3C2)c2ccccc2)cc1 [CBK126404]	97.9785
Cc1nn(-c2ccc(F)cc2)c(C)c1C(=O)NCc1ccnc(N2CCCC2)c1 [CBK296700]	67.4745
Cn1ncc(Nc2ccccc2)c1C(=O)O [CBK013004]	29.14
CCCCN(Cc1ccccc1)C(=O)[C@H]1CCCC[C@H]1C(=O)O [CBK286596]	97.1552
Cn1cnc([N+](=O)[O-])c1Sc1cccs1 [CBK002620]	46.4949
CC(C)(C)OC(=O)N1Cc2c(-c3noc(C4CC4)n3)ncn2-c2ccc(Cl)cc21 [CBK007792]	62.3975

Structure (SMILES)	% of control remaining
COC(=O)CCC(=O)Nc1snnc1-c1ccc(Cl)cc1 [CBK153241]	95.609
c1cc(N2CCN(CCN3CCCC3)CC2)ncc1-c1ccc2c(c1)OCO2 [CBK037769]	86.6158
CC(=O)Nc1nnn(CCOc2nonc2C)n1 [CBK027320]	103.516
COCCNc1cc(-c2ccc(C(C)=O)s2)ncn1 [CBK090791]	134.879
Cc1nnc(CS(=O)(=O)Cc2csc(C(C)C)n2)n1C1CC1 [CBK304106]	38.33
COc1ccc(CNC(=O)c2cc(S(=O)(=O)N(C)C)ccc2OC)cc1 [CBK307586]	57.4524
CN1CCC(NC(=O)c2cc3ccccc3[nH]2)CC1 [CBK168633]	82.9404
O=C(CC1Sc2ccccc2NC1=O)Nc1ccc([N+](=O)[O-])c(F)c1 (stereo not drawn) [CBK264717]	98.8453
Cc1ccc(C(C)C(=O)N2CCC(O)(Cn3ccnc3C)CC2)cc1 (stereo not drawn) [CBK284660]	92.3404
CC(C)C(=O)N1CCC(OCc2ccc(-c3ccc(C(=O)N(C)C)cc3)cc2S(C)(=O)=O)CC1 [CBK155921]	68.7246
CN1CCN(CCC(=O)N2CCN(c3ncccn3)CC2)CC1 [CBK144520]	56.6185
OC(CN1CCOCC1)Cn1c(-c2ccccc2)c(-c2ccccc2)c2ccc3ccccc3c21 (stereo not drawn) [CBK263996G]	27.2817
Cc1ccc(C(Cc2ccsc2)NS(=O)(=O)c2ccc3[nH]c(=O)[nH]c(=O)c3c2)nc1 (stereo not drawn) [CBK286354]	115.448
CCOc1ccccc1C(=O)N1CCC(Cc2cccc(-c3cccs3)c2)(C(N)=O)CC1 [CBK285914]	100.984
Cc1nnsc1C(=O)N1CCN(c2cc(C(F)(F)F)ccn2)CC1 [CBK008467]	50.643
CC(=O)c1ccc(NC(=O)O[C@@H]2CO[C@H]3[C@@H]2OC[C@@H]3NC(=O)C2CCC2)cc1 [CBK289475]	106.805
CC(C)C(=O)N1CC(C)N(CCCC(c2ccc(F)cc2)c2ccc(F)cc2)CC1C (stereo not drawn) [CBK024961C]	56.0445
CCCc1c(C(=O)N2CCN(c3ncccn3)CC2)cnn1-c1cc(Cl)cc(Cl)c1 [CBK107383]	96.9197
COc1ccc(CCNC(=O)c2cnc3scc(C)n3c2=O)cc1 [CBK287291]	69.9957
Cc1nc2ccc(NC(=S)N3CCN(c4ccccn4)CC3)cc2nc1C [CBK267227]	98.6567
COc1ccc(S(=O)(=O)NC(=O)NCC2CC3C=CC2C3)cc1 (stereo not drawn) [CBK022821]	126.373
O=C(CC12CC3CC(CC(C3)C1)C2)NCC(=O)Nc1ccc2[nH]c(=O)[nH]c2c1 [CBK295349]	84.2204
CC(C)NC(=O)NC[C@H]1C[C@@H]2CCN1C[C@@H]2c1cc(C2CCCC2)nn1C [CBK288744]	98.5106
COCCn1c(=O)c2c(nc3oc(C(C)(C)C)cn32)n(C)c1=O [CBK307566]	87.5901
C=CCn1c(Cc2csc(NC(=O)Cc3ccc(Cl)cc3)n2)n[nH]c1=S [CBK295359]	102.761
